{"source": "paper PMC4336329", "about": "(PLoS ONE, 2015)", "note": "Out of some 310,000 compounds screened, about 14,000 (4.5%) showed an effect of 50% or more. Effects have a minus sign here. This is one part of the list.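 Note: peak tail current of the secondary pulse compared with the same well before compound.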", "data": [{"molecular_target": "human ether-à-go-go-related gene (hERG) potassium channel (human, UniProt Q12809)", "sequence (Q12809 whole entry, looked up)": "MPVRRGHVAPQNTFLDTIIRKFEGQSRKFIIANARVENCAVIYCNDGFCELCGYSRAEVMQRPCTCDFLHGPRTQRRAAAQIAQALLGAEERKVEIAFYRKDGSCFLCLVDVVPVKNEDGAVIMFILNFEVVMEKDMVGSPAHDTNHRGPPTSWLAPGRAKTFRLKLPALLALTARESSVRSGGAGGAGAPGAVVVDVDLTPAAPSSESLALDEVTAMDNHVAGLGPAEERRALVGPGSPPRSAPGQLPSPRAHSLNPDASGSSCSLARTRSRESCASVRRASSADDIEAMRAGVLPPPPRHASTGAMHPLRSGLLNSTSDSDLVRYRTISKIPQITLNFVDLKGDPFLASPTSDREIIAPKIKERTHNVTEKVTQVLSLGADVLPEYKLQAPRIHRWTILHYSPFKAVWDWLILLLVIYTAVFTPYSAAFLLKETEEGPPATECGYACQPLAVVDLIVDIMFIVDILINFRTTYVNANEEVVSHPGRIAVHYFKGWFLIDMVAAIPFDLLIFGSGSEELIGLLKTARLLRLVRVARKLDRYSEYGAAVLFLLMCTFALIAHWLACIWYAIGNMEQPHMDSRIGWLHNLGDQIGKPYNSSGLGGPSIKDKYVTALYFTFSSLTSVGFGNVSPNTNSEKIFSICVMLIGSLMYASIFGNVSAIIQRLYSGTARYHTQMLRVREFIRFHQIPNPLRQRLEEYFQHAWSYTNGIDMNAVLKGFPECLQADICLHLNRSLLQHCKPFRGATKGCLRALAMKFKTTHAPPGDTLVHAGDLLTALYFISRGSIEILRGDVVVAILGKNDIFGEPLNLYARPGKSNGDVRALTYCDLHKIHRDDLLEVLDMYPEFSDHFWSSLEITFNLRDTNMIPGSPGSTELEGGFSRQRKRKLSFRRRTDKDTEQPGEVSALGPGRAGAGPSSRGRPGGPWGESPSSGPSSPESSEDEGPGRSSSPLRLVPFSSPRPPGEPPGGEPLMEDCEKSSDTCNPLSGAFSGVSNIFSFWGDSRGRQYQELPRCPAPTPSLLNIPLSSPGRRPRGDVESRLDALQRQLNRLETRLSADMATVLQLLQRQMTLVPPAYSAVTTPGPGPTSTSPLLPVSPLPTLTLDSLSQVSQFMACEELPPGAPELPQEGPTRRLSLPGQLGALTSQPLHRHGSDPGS", "test": "primary screen, population patch clamp on CHO cells stably expressing hERG", "units": {"hERG current change (%, negative = inhibition) at 10uM": "%"}, "values": [{"smiles": "CC(=O)c1ccc(NC(=S)Nc2cccc3ccccc23)cc1", "hERG current change (%, negative = inhibition) at 10uM": -4.66}, {"smiles": "CC(C)[C@H](CO)Nc1nc(Nc2ccc(Cl)c(C(=O)O)c2)c2ncn(C(C)C)c2n1", "hERG current change (%, negative = inhibition) at 10uM": 16.3}, {"smiles": "O=C(Nc1nc(-c2cccs2)cs1)C1=COCCO1", "hERG current change (%, negative = inhibition) at 10uM": -15.9}, {"smiles": "O=C(OCC(=O)N1CCN(c2ccccc2)CC1)c1nc(Cl)ccc1Cl", "hERG current change (%, negative = inhibition) at 10uM": -14.3}, {"smiles": "Cn1c(N/N=C/c2c[nH]c3ccccc23)nc2ccccc21", "hERG current change (%, negative = inhibition) at 10uM": -46.7}, {"smiles": "Cc1nc2ccccc2c(=O)n1NC(=O)c1ccc(C(C)(C)C)cc1", "hERG current change (%, negative = inhibition) at 10uM": 2.15}, {"smiles": "C#CCOCCOCCOCCNc1nc(N2CCN(C(=O)[C@H](CCCCN)n3cc([C@@H](N)C(C)CC)nn3)CC2)nc(N2CCN(C(=O)[C@H](CCCCN)n3cc([C@@H](N)CO)nn3)CC2)n1.Cl", "note": "(some centres unmarked)", "hERG current change (%, negative = inhibition) at 10uM": 14.3}, {"smiles": "CN(C)/C=N/c1c(C#N)cnn1C", "hERG current change (%, negative = inhibition) at 10uM": 21.3}, {"smiles": "O=C(CSc1ccc(Br)cc1)NCC(c1ccco1)N1CCCCC1", "note": "(centres unmarked)", "hERG current change (%, negative = inhibition) at 10uM": -42.8}, {"smiles": "O=C(O)C(c1ccccc1)C1(O)CCCCC1", "note": "(centres unmarked)", "hERG current change (%, negative = inhibition) at 10uM": 22.7}, {"smiles": "Cc1ccc(SCc2cc(=O)n(C)[nH]2)cc1", "hERG current change (%, negative = inhibition) at 10uM": 20.3}, {"smiles": "Cc1cc(C)n(-c2c(F)c(F)c(COC(=O)c3ccccc3)c(F)c2F)n1", "hERG current change (%, negative = inhibition) at 10uM": 5.11}, {"smiles": "Cc1nonc1CN(C)C(=O)CC1C(=O)NCCN1Cc1ccc(F)c(F)c1", "note": "(centres unmarked)", "hERG current change (%, negative = inhibition) at 10uM": 15}, {"smiles": "COc1ccc(Nc2nc(N)nc(CSC(=S)N3CCCCC3C)n2)cc1", "note": "(centres unmarked)", "hERG current change (%, negative = inhibition) at 10uM": 0.572}, {"smiles": "COc1ccc(-c2cc(C(F)(F)F)n3ncc(C(=O)N4CCc5ccccc5C4)c3n2)cc1", "hERG current change (%, negative = inhibition) at 10uM": 5.27}, {"smiles": "Cc1cc(C(F)(F)F)c(C#N)c(SCC(=O)Nc2nc3cc(Br)ccc3s2)n1", "hERG current change (%, negative = inhibition) at 10uM": -9.88}, {"smiles": "CC(=O)c1c(C)[nH]c(C(=O)Nc2cccc(S(=O)(=O)N3CCOCC3)c2)c1C", "hERG current change (%, negative = inhibition) at 10uM": 0.822}, {"smiles": "Cc1oc(C)c(C(=O)O)c1COc1ccc(C(=O)O)cc1", "hERG current change (%, negative = inhibition) at 10uM": 4.8}, {"smiles": "Cc1ccc(-c2nnc(N3CCOCC3)c3ccccc23)cc1S(=O)(=O)NCC1CCCO1", "note": "(centres unmarked)", "hERG current change (%, negative = inhibition) at 10uM": -17.9}, {"smiles": "Cc1cc(NC(=O)CSc2nnnn2-c2ccc(C(C)C)cc2)no1", "hERG current change (%, negative = inhibition) at 10uM": 0.634}, {"smiles": "COc1cc(C)ccc1OCCOCCOc1ccc([N+](=O)[O-])cc1", "hERG current change (%, negative = inhibition) at 10uM": -54.8}, {"smiles": "CCNc1nc(-c2ccc(OC(F)F)cc2)c(C)s1", "hERG current change (%, negative = inhibition) at 10uM": 15.1}, {"smiles": "COc1ccc(C(=O)CSc2nnc(CNc3ccc(F)cc3)o2)cc1", "hERG current change (%, negative = inhibition) at 10uM": 12.2}, {"smiles": "CCOC(=O)c1c(NC(=O)CSc2nnc(C)o2)sc(C)c1C", "hERG current change (%, negative = inhibition) at 10uM": -24.8}, {"smiles": "O=C(O)C1CN2CCC1CC2", "note": "(centres unmarked)", "hERG current change (%, negative = inhibition) at 10uM": -2.72}, {"smiles": "COc1ccc(N(CC(=O)N2CCN(c3ccccc3)CC2)S(=O)(=O)c2c(C)noc2C)cc1", "hERG current change (%, negative = inhibition) at 10uM": -2.81}, {"smiles": "C/C(=N\\Nc1nc(N)cc(Cl)n1)c1ccc(Cl)c(Cl)c1", "hERG current change (%, negative = inhibition) at 10uM": 2.57}, {"smiles": "O=C(O)CC(c1cccc(O)c1)N1Cc2ccccc2C1=O", "note": "(centres unmarked)", "hERG current change (%, negative = inhibition) at 10uM": 15.3}, {"smiles": "COc1ccc(N/N=C2/CCCCC2=O)cc1", "hERG current change (%, negative = inhibition) at 10uM": 12.1}, {"smiles": "COc1ccc(S(=O)(=O)N2CCC(C(=O)NCCc3c[nH]c4ccccc34)CC2)cc1", "hERG current change (%, negative = inhibition) at 10uM": 3.93}, {"smiles": "CC(C)COC(=O)CNc1n[nH]c(=S)[nH]c1=O", "hERG current change (%, negative = inhibition) at 10uM": 6.56}, {"smiles": "COc1ccc(NC(=O)CN2C(=O)NC3(CCCC3)C2=O)cc1Cl", "hERG current change (%, negative = inhibition) at 10uM": -1.67}, {"smiles": "O=C(Nc1cccc(C(=O)N2CCCCCC2)c1)c1ccco1", "hERG current change (%, negative = inhibition) at 10uM": -14.5}, {"smiles": "O=C(NC1CCN(Cc2ccccc2)CC1)C1CCCN(c2nnc(-n3cccc3)s2)C1", "note": "(centres unmarked)", "hERG current change (%, negative = inhibition) at 10uM": -69.8}, {"smiles": "O=C1CN(C(=O)CC2C(=O)NCCN2Cc2ccccc2C(F)(F)F)CCN1", "note": "(centres unmarked)", "hERG current change (%, negative = inhibition) at 10uM": 13.5}, {"smiles": "CCOC(=O)c1cnc2nc(C)[nH]n2c1=O", "hERG current change (%, negative = inhibition) at 10uM": 8.85}, {"smiles": "CCOc1ccc(NC(=O)NCc2ccc3c(c2)OCO3)cc1", "hERG current change (%, negative = inhibition) at 10uM": 9.08}, {"smiles": "O=C(CSc1ncccn1)N1CCN(C(=O)CSc2ncccn2)CC1", "hERG current change (%, negative = inhibition) at 10uM": -8.69}, {"smiles": "O=C(c1cn(-c2ccccc2)nc1-c1cccnc1)N1CCCC(C(F)(F)F)C1", "note": "(centres unmarked)", "hERG current change (%, negative = inhibition) at 10uM": -14.1}, {"smiles": "COc1cc(C)c(NC(=S)NCCCN2CCOCC2)cc1OC", "hERG current change (%, negative = inhibition) at 10uM": -5.88}, {"smiles": "Cc1ccc(C(=O)N2CCN(S(=O)(=O)c3cc(Br)ccc3Br)CC2)o1", "hERG current change (%, negative = inhibition) at 10uM": -23.9}, {"smiles": "O=C(O)CCC(=O)N1CCN(S(=O)(=O)c2cccs2)CC1", "hERG current change (%, negative = inhibition) at 10uM": 18}, {"smiles": "COc1cccc(Cn2c(=O)c3[nH]cnc3n(-c3ccccc3C)c2=O)c1", "hERG current change (%, negative = inhibition) at 10uM": -1.8}, {"smiles": "Cc1cc(C)c(NC(=O)COC(=O)CCc2ccc(S(=O)(=O)N3CCCCC3)cc2)c(C)c1", "hERG current change (%, negative = inhibition) at 10uM": 11.5}, {"smiles": "C=CCN1C=CC=C/C1=C1\\SC(=S)N(C)C1=O", "hERG current change (%, negative = inhibition) at 10uM": 11.5}, {"smiles": "COc1ccc(CC(=O)Nc2sc3c(c2C#N)CC(C)(C)NC3(C)C)cc1OC", "hERG current change (%, negative = inhibition) at 10uM": -3.63}, {"smiles": "Cc1c(Cc2ccccc2)c(=O)oc2cc(OCC(=O)c3ccccc3)ccc12", "hERG current change (%, negative = inhibition) at 10uM": 5.32}, {"smiles": "COC(=O)C1=C(N)Oc2cc(C)n(Cc3cccnc3)c(=O)c2C1c1ccc(OC)c(OC)c1", "note": "(centres unmarked)", "hERG current change (%, negative = inhibition) at 10uM": -19}, {"smiles": "O=C(CC1SC(=O)NC1=O)Oc1ccc(/C=N/NC(=O)c2ccccc2O)cc1", "note": "(centres unmarked)", "hERG current change (%, negative = inhibition) at 10uM": -3.93}, {"smiles": "O=C(C[n+]1ccccc1)N/N=C/c1ccc(Cl)c(Cl)c1.[Cl-]", "hERG current change (%, negative = inhibition) at 10uM": 4.71}, {"smiles": "CCn1cc(C(=O)N[C@@H](CC(C)C)C(=O)NCCCn2ccnc2)c(=O)c2cc3c(cc21)OCO3", "hERG current change (%, negative = inhibition) at 10uM": 11.4}, {"smiles": "CCC(CC)C(=O)c1c[nH]c(C(=O)NCc2ccccc2)c1", "hERG current change (%, negative = inhibition) at 10uM": 0.153}, {"smiles": "O=c1c(-c2nn[nH]n2)coc2ccc(Cl)cc12", "hERG current change (%, negative = inhibition) at 10uM": 16.4}, {"smiles": "CCOc1ccc(CC(=O)NCc2cn3c(C)csc3n2)cc1", "hERG current change (%, negative = inhibition) at 10uM": 8.42}, {"smiles": "O=C(COC(=O)c1ccc(OC(F)F)cc1)NCCCN1CCCC1=O", "hERG current change (%, negative = inhibition) at 10uM": -46.5}, {"smiles": "CCn1c(SCC(=O)N2CCCC(C)C2)nnc1-c1ccco1", "note": "(centres unmarked)", "hERG current change (%, negative = inhibition) at 10uM": 17}]}]}
